Measured values: PubChem BioAssay (NCI)
Values joined by “and” are separate entries in the source; they are usually repeats but may differ in a detail not shown here. Identical values can stand only once.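 Protocol summary: plate cells (96-well), add compound at 5 concentrations, incubate 48 h, interpolate endpoints linearly. The concentration for 50% growth inhibition is given as GI50. TGI denotes the concentration required for complete inhibition of growth.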

system: NCI-H322M lung; assay: inhibition of tumour cell growth, NCI panel, 48 h

Row | Compound | GI50 | TGI
1 | Oc1ccc(N=Nc2ccc(Br)cc2)c(O)c1 | 7.04 µM | 44 µM
2 | O=C(CSCC(=O)N/N=C\c1ccc(F)cc1F)N/N=C\c1ccc(F)cc1F |  | > 100 µM
3 | CN(C)CC1(C)CC/C(=C\c2ccc(Cl)cc2)C1=O (centres undefined) |  | > 100 µM
4 | Cc1ccc(/C(=N/NS(=O)(=O)c2cc(C)c(Cl)cc2Cl)Sc2cc(Cl)c(C)cc2S(N)(=O)=O)cc1 | > 100 µM | > 100 µM
5 | CCOC(=O)C(C)NC(=O)NC12CC3CC(CC(F)(C3)C1)C2 (centres undefined) |  | > 100 µM
6 | CCCCCCCCCCCCc1ccc(S(=O)(=O)O)cc1.[Cu+2] |  | > 100 µM
7 | c1ccc(/C(=N\Nc2nc3ccccc3[nH]2)c2ccccn2)cc1 |  | 2.58 µM
8 | O=C(O)CCC(NC(=O)c1ccc(Oc2nc3ccccc3nc2C(=O)O)cc1)C(=O)O (centres undefined) |  | > 100 µM
9 | CC(C)[C@@]12C[C@@H](OC(=O)C3CO3)[C@@](C)(O1)[C@@H]1CC[C@@H](C)[C@H]1[C@@H]2OC(=O)/C=C/c1ccccc1 (some centres undefined) | 14.4 µM | 28.9 µM
10 | O=c1c2ccccc2n2c(-c3ccccc3O)nnc2n1-c1ccccc1 |  | > 100 µM
11 | O=C(O)c1cnc2c(ccc3[nH]cccc32)c1=O |  | > 100 µM
12 | Clc1cc(Br)ccc1-c1ccc(CNCC2CCNCC2)o1 | 2.03 µM | 4.49 µM
13 | COc1ccc(C2(CC(C)C)CCNC2)cc1OC (centres undefined) |  | > 100 µM
14 | CCOC(=O)c1ccc(N2NC(=O)/C(=C/c3ccc([N+](=O)[O-])o3)C2=O)cc1 | > 43.7 µM | > 64 µM
15 | Brc1ccc(-c2[nH]c3ccccc3c2/C=N\Nc2ccc(-c3nc4ccccc4[nH]3)cc2)cc1 |  | > 100 µM
16 | CC(=O)Nc1ccc(S(=O)(=O)c2nnc(NC(C)=O)s2)cc1 |  | > 100 µM
17 | O=C1c2cc3c(cc2CC12Cc1ccccc1C2)CCC3 |  | 40.6 µM
18 | N=S(c1ccccc1[N+](=O)[O-])c1ccccc1[N+](=O)[O-] | 6.73 µM and 2.9 µM | 13.2 µM and 8.29 µM
19 | Cc1ccc(-c2cc(C(=O)Nc3ccc(S(=O)(=O)N4CCCCC4)cc3)[nH]n2)c(O)c1 | > 100 µM | > 100 µM
20 | O/N=C1/CCCC/C1=C\c1ccc(Cl)c(Cl)c1 |  | 89.9 µM
21 | CC(=O)NC(CCCCNCc1ccccc1)C(=O)NCc1ccccc1 (centres undefined) |  | > 100 µM
22 | Nc1ccc(Oc2ccc(C34CC5CC(C3)CC(c3ccc(Oc6ccc(N)cc6C(F)(F)F)cc3)(C5)C4)cc2)c(C(F)(F)F)c1 |  | 44.6 µM
23 | CC(C(=O)NCNC(=O)c1ccccc1)C(=O)Nc1ccccc1 (centres undefined) |  | > 100 µM
24 | Cc1cccc(N=Nc2c(C)nn(C(=O)CC(=O)Nc3ccc(Cl)cc3)c2C)c1 |  | > 100 µM

Row | Compound | GI50 | TGI
25 | COc1cc2c(c(OC)c1OC)-c1ccc(SC)c(=O)cc1[C@@H](NC(=O)c1cccc([N+](=O)[O-])c1)CC2 |  | 65.1 µM
26 | COc1cccc(/C=C2\CCC(CN(C)C)C2=O)c1 (centres undefined) |  | 32.1 µM
27 | CC(C)(C)c1cc(C[P+](c2ccccc2)(c2ccccc2)c2ccccc2)cc(C(C)(C)C)c1O | 1.92 µM | 8.96 µM
28 | CC(C)CNC1=NCC(C)S1 (centres undefined) |  | > 100 µM
29 | CC1(C)CN(CC(=O)O)CC(Cc2ccc(OCC(=O)O)cc2)N(CC(=O)O)CC(C)(C)SS1 (centres undefined) |  | > 100 µM
30 | NC(=O)N/N=C(\CC1OC(=O)c2ccccc21)c1ccc([N+](=O)[O-])cc1 (centres undefined) |  | 90.4 µM
31 | CC(=O)OC(C(=O)O)C(OC(C)=O)C(OC(C)=O)C(OC(C)=O)C(=O)O (centres undefined) |  | > 100 µM
32 | Cc1cc(C)c(/C=C2\C(=O)Nc3ccccc32)[nH]1 |  | > 100 µM
33 | NC(=O)N/N=C\CC(O)(C(F)(F)Cl)C(F)(F)Cl |  | > 10 µM
34 | CCN1/C(=C/C(C)=C/c2sc3ccc4ccccc4c3[n+]2CC)Sc2ccc3ccccc3c21 | 0.292 µM | 1.23 µM
35 | CCCC(=O)OCC1OC(n2cc(F)c(=O)[nH]c2=O)C(F)C1O (centres undefined) |  | > 100 µM
36 | Cc1ccc(S(=O)(=O)N(CCN)c2cc3c4c(c2)Oc2cccc5c2C4c2c(cccc2O3)O5)cc1 |  | > 100 µM
37 | CCOC(=O)c1c(NC(=S)Nc2ccccc2)sc2c1CCN(C)C2 |  | > 100 µM
38 | CCOc1ccccc1/C=N\N=C(N/N=C/c1ccccc1OCC)N/N=C/c1ccccc1OCC | 2.94 µM | > 100 µM
39 | CCN(CC)CCCNc1ccc([N+](=O)[O-])c2nc3ccccc3c(N)c12 |  | 1.91 µM
40 | O=S(=O)(CC(Cl)c1ccccc1)c1nc2ccccc2s1 (centres undefined) |  | 32.5 µM
41 | COc1cc(OCCN(C)C)c2[nH]c(C(=O)N3CC(CCl)c4c3cc(N)c3ccccc43)cc2c1 (centres undefined) |  | 1.39 µM
42 | COC(=O)c1c(O)ccc2c1c1c(n2CCc2ccc(OC)c(OC)c2)C(=O)c2ccccc2C1=O |  | 34 µM
43 | Cc1cc(N(CCC#N)CCC#N)ccc1/C=C1N=C(/C=C\c2ccccc2)N(NC(=O)CC(=O)Nc2ccccc2Cl)C\1=O |  | > 100 µM
44 | O=C(/C=C/c1ccc([N+](=O)[O-])cc1)N1CCN(CCOC(c2ccc(F)cc2)c2ccc(F)cc2)CC1 |  | > 100 µM
45 | S=C(NCCc1ccccn1)N/N=C(\c1ccccc1)c1ccccn1 |  | > 100 µM
46 | NC1CCN(c2nc3ccccc3c3c2CCCC3)CC1 |  | 13.2 µM
47 | NC1=NN(c2ccccc2)C(=O)C1C(=O)C(=O)Nc1ccccc1 (centres undefined) |  | > 100 µM
48 | C[n+]1c2ccccc2c(N=[N+]=[N-])c2ccccc21 |  | > 10 µM

Row | Compound | GI50 | TGI
49 | COc1cc2c3c(n(CCCN=[N+]=[N-])c(=O)c2cc1OC)-c1ccc([N+](=O)[O-])cc1C3=O | > 100 µM | > 100 µM
50 | c1cc(OCCN2CCCC2)ccc1CNc1ccc2nc(CCC3CCCCC3)[nH]c2c1 | 2.48 µM | 7.4 µM
51 | CCc1cc2c(c(OCC(F)(F)F)c(C(=O)NC3CCN(C(=O)CO)CC3)n2C)c(=O)n1CC(=O)c1ccccc1 | 97.9 µM | > 100 µM
52 | O=C(C[C@@H]1CCCN2CCCC[C@H]12)N1c2ccccc2Sc2ccc(Cl)cc21 |  | 30.2 µM
53 | O=C(CCN1CCCCC1)Nc1ccc2c(c1)C(=O)c1ccc(NC(=O)CCN3CCCCC3)cc1C2=O |  | 11.6 µM
54 | C=CC12CCCCC1CC(C(=O)OC)=C(O)C2 (centres undefined) |  | > 100 µM
55 | C[C@]12CC[C@H]3[C@@H](CC=C4C[C@@H](O)CC[C@@]43C)[C@@H]1C/C(=C\c1ccncc1)[C@@H]2O |  | 51.7 µM
56 | NC(=O)c1cn(C2CC(O)C(CO)O2)c2ncnc(N)c12 (centres undefined) | 2.3 µM | 41.6 µM
57 | CCCCCN(CCCCC)CCC[C@@H](C)[C@H]1CC[C@H]2[C@@H]3[C@H](OCCCN)C[C@@H]4C[C@H](OCCCN)CC[C@]4(C)[C@H]3C[C@H](OCCCN)[C@]12C | 3.09 µM | 13.1 µM
58 | CCOC(=O)Cc1csc(NC(=O)C(OC(=O)c2ccc(Cl)cc2)c2ccccc2)n1 (centres undefined) | 70.5 µM | > 100 µM
59 | Cc1ncc(C(=O)Nc2ccc(CN3CCN(C)CC3)c(C(F)(F)F)c2)cc1C#Cc1cnc(N)c2ccc(C#N)cc12 | 0.0579 µM | 13.4 µM
60 | NCCCN(CCCCN(CCCN)Cc1ccccc1)Cc1ccccc1 |  | > 100 µM
61 | Clc1ccc(-c2cnc3c(-c4ccnc(N5CCNCC5)c4)cnn3c2)cc1 | 1.92 µM | 3.39 µM
62 | O=C1c2ccccc2CC12Cc1cc3c(cc1C2)CCC3 |  | > 100 µM
63 | CN(CCNC(=O)c1cn(C)c2c1ccc1ccccc12)CCNC(=O)c1cn(C)c2c1ccc1ccccc12 |  | > 24.9 µM
64 | CCOC(=O)NC(=O)c1cn(CCSCCOC(=O)NCCCCCCNC(=O)OCCSCCn2cc(C(=O)NC(=O)OCC)c(=O)n(C)c2=O)c(=O)n(C)c1=O |  | > 100 µM
65 | CCCCCSc1ccc2nc(NC(=O)OCC)sc2c1 | 5.1 µM | > 100 µM
66 | N#Cc1c(N)nc2c(c1-c1ccc(Cl)cc1)COc1ccc(F)cc1-2 | 30.2 µM | > 100 µM
67 | COc1cc(OC)c(C(=O)/C=C/c2ccc(C#N)cc2)c(OC)c1 | 1.25 µM | 5.47 µM
68 | Cn1cnc([N+](=O)[O-])c1Sc1n[nH]c(-c2ccc(Cl)cc2)n1 |  | 52.7 µM
69 | N#CC(O)CCOCc1ccccc1 (centres undefined) |  | > 100 µM
70 | OCc1ccc(-c2nc(-c3ccc4c(c3)OCO4)c(-c3ccccn3)[nH]2)cc1 | > 25 µM | > 25 µM
71 | CN1CCN(C)C1c1ccc(C2N(C)CCN2C)cc1 | > 100 µM | > 100 µM
72 | CC(C)CCN(CCC(C)C)CC(=O)Nc1ccc(S(=O)(=O)c2ccc(NC(=O)CN(CCC(C)C)CCC(C)C)cc2)cc1 | 6.21 µM | 20.7 µM

Row | Compound | GI50 | TGI
73 | O=C1CN=C(c2ccc[nH]2)c2cc(Cl)ccc2N1 | > 100 µM | > 100 µM
74 | COc1cc2c3c(n(CCCN=[N+]=[N-])c(=O)c2cc1OC)-c1ccc(F)cc1C3=O | 55.5 µM | > 100 µM
75 | Cc1cc(-c2nc3sc(C)cn3c2/C=N/N=C(N)N)c(C)s1 | 5.74 µM | 16.7 µM
76 | C/C(O)=C(/C=N/C(=S)Nc1ccccc1)C(=O)Nc1ccccc1C |  | > 100 µM
77 | OCC1OC(N2C=C(c3nc4ccccc4s3)C3C=CC=CC32)C(O)C(O)C1O (centres undefined) | 17 µM | > 50 µM
78 | O=C1NC(=O)C(CCC(=O)c2cccc3ccccc23)C(=O)N1 |  | > 100 µM
79 | Cc1nc2ccc(Cl)cc2c2c1CCN2c1ccc(F)cc1 |  | > 100 µM
80 | N#CC1(CCCI)CCCC1 |  | 26.4 µM
81 | FC(F)(F)c1ccc2c(-c3cc[nH]c3)ccnc2c1 |  | 61.7 µM
82 | CC[C@]12CN3CCc4c([nH]c5ccccc45)[C@@](C(=O)OC)(c4cc5c(cc4OC)N(C)[C@H]4[C@@](O)(C(=O)OC)[C@H](OC(C)=O)[C@]6(CC)C=CCN7CC[C@]54[C@@H]76)CC(C3)[C@H]1O2 (some centres undefined) | 0.176 µM | > 100 µM
83 | O=C(Nc1ccc(I)cc1F)c1cc(Br)ccc1O | 0.399 µM | > 100 µM
84 | C=CCCn1nc(-c2ccccc2)oc1=O |  | > 100 µM
85 | COc1ccc(Nc2ncc(I)c(NCCCNC(=O)C3CCC3)n2)cc1 | 9.76 µM | 40.7 µM
86 | CC(=O)C1C(=O)C(=O)N(c2ccc([N+](=O)[O-])cc2[N+](=O)[O-])C1=O (centres undefined) |  | > 100 µM
87 | NC(=O)c1ncn(C2C=CC(CP(=O)(O)O)C2)c1N (centres undefined) |  | > 100 µM
88 | N#C/C(c1nc2ccccc2[nH]1)=c1\s/c(=C/c2ccccc2)c(=O)n1-c1ccccc1 |  | > 100 µM
89 | Cc1ccc(NC(=O)C2C3C=CC(O3)C2C(=O)O)cc1 (centres undefined) |  | > 100 µM
90 | O=CN/C=C/c1ccccc1 |  | > 100 µM
91 | O=c1[nH]c2nc3ccccc3c(=O)n2/c1=C/c1ccccc1 |  | > 100 µM
92 | Oc1nc(N2CCOCC2)sc1/C=C1\C=Nc2ccccc21 | > 100 µM | > 100 µM
93 | CCCCCCCCCCC/C=C(/C(=O)CCCO[Si](C)(C)C(C)(C)C)C(=O)OC |  | > 100 µM
94 | COc1cc(/C=C2\CCC(C)C3=C2N=c2s/c(=C/c4ccc(Cl)cc4)c(=O)n2C3c2cc(OC)c(OC)c(OC)c2)cc(OC)c1OC (centres undefined) |  | > 100 µM
95 | Cc1nc(C(N)=S)sc1C(=O)CC(=O)C(=O)Nc1ccc(Br)cc1 |  | > 100 µM
96 | COc1ccc(C(=O)/C=C/c2cc(-c3ccc(OC)c(OC)c3)n[nH]2)cc1OC | 2.67 µM | 8.23 µM
